Experimental data reported in article PMC4336329 (PLoS ONE, 2015).
Among all 310,000 compounds or so, about 2,200 (0.71%) showed an effect of 50% or more. The effect is printed as a negative number. The list shows a part of the results.

These compounds were tested against human ether-à-go-go-related gene (hERG) potassium channel (human, UniProt Q12809) (assay: primary screen, population patch clamp on CHO cells stably expressing hERG).
human ether-à-go-go-related gene (hERG) potassium channel, sequence (Q12809 whole entry, looked up): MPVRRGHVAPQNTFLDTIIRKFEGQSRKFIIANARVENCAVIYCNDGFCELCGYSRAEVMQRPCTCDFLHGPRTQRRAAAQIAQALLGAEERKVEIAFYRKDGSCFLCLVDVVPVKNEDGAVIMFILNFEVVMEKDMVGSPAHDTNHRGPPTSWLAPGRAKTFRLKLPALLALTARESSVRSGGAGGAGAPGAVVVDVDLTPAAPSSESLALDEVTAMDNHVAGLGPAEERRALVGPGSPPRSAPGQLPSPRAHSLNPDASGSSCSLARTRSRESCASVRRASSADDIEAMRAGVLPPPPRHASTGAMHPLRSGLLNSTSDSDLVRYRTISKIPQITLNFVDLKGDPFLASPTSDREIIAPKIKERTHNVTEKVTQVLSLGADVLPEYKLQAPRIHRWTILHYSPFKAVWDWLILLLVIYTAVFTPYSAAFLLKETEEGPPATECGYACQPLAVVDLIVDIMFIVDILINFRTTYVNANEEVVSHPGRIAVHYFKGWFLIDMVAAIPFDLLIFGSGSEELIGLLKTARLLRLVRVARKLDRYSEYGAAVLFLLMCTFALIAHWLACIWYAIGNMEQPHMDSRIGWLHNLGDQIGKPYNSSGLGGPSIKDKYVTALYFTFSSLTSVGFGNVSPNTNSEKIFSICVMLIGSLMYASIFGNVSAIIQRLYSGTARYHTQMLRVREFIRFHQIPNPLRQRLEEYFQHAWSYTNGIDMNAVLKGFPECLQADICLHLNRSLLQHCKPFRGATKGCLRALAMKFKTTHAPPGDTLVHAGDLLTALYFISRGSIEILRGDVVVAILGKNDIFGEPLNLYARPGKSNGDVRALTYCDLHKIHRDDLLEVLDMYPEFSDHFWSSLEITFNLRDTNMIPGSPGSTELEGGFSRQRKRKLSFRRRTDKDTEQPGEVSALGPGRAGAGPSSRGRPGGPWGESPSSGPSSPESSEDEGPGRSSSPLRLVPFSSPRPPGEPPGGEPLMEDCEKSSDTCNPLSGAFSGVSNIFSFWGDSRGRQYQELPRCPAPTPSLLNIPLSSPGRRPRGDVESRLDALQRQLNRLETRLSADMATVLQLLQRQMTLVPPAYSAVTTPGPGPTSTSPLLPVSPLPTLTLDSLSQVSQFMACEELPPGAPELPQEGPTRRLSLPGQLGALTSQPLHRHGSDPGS

| Compound | hERG current change (%, negative = inhibition) at 1uM |
| --- | --- |
| Cc1ccc(N(C(=O)CCC(=O)Nc2cc(C)on2)C(C(=O)NC2CCCC2)c2ccncc2)cc1 (centres unmarked) | 11.4% |
| O=C1COc2cc(ccc2[N+](=O)[O-])Oc2ccc(cc2Cl)C(=O)CCCCO1 | 7.73% |
| CCN1CCC2(CCNC2)C1.Cl (centres unmarked) | -8.23% |
| CCn1c(SCC(=O)Nc2ccc(OC)cc2)nc2nc3c(cc2c1=O)CCCC3 | 4.43% |
| COc1cc2c(cc1OC)C(c1ccccc1)CC2=O (centres unmarked) | 11.8% |
| CCOC(=O)Cc1csc(NC(NC(=O)CC)(C(F)(F)F)C(F)(F)F)n1 | 9.22% |
| COc1ccc(-n2cc(CN(C)Cc3n[nH]c(=O)[nH]3)c(-c3cccc(F)c3)n2)cc1 | -2.65% |
| CCCCN(CC)CCNS(=O)(=O)c1ccc2c(c1)oc(=O)n2C | 7.36% |
| O=C(COC(=O)CSc1ccc([N+](=O)[O-])cc1)NCc1ccco1 | 16.4% |
| CN(C)c1ccc(CN(C(=O)COc2ccc(Br)cc2)C2CCS(=O)(=O)C2)cc1 (centres unmarked) | 12.2% |
| Cc1ccc(CNC(=O)CCc2nc(-c3cccs3)no2)cc1 | 5.65% |
| CCOc1ccc(NC(=O)CN2CCN(CC(=O)Nc3ccc(Cl)c(C(F)(F)F)c3)CC2)cc1 | -6.47% |
| CCNc1nc(SC(C)C(=O)Nc2ccccc2)nc(N2CCOCC2)n1 (centres unmarked) | 3.98% |
| Cc1ccc(NC(=O)c2cc(=O)n(Cc3ccccc3)c(=O)[nH]2)cc1C | 22.4% |
| O=C(c1ccc(Cl)cc1)C1CCN(C(=O)c2ccccc2)CC1 | 4.65% |
| COc1ccc(-c2nn(-c3ccccc3)cc2/C=N/O)cc1OC | 12.7% |
| O=C(CSc1nnc(SCc2ccc(Cl)cc2)s1)N/N=C/c1c[nH]c2ccccc12 | 5.71% |
| Cc1ccc(CNC(=O)c2ccc(OCC3CCCO3)cc2)cc1 (centres unmarked) | 9.63% |
| Cc1ccc(S(=O)(=O)N2CCC(C(=O)NC3CC(C)(C)NC(C)(C)C3)CC2)cc1 | 12.1% |
| Br.Cc1cc(C)cc(OCC(=O)NN2Cc3ccccc3C2=N)c1 | 1.63% |
| O=C(NCCN1C(=O)S/C(=C\c2cccnc2)C1=O)C1CC(=O)N(Cc2ccco2)C1 (centres unmarked) | 16.8% |

| Compound | hERG current change (%, negative = inhibition) at 1uM |
| --- | --- |
| CC(C)n1cc(CN2CCC(n3nccc3NC(=O)Cc3ccccc3)CC2)cn1 | 13.3% |
| NC(=O)CC(NC(=O)Cc1ccc(Br)cc1)c1ccc(NCc2ccc(F)c(F)c2)c([N+](=O)[O-])c1 (centres unmarked) | 5.75% |
| O=C(NCc1ccco1)c1csc2c1CCCC2 | 19.4% |
| C=C(C)Cn1c(SCC(=O)O)nnc1-c1ccc(C(C)(C)C)cc1 | 11.2% |
| O=C(NNC(=O)c1ccc(Cl)cc1Cl)c1cccs1 | 16.3% |
| CCN1CNC(=S)N(Cc2ccccc2)C1 | 5.82% |
| CC(C)(C)OC(=O)N1CCC(c2c(C(=O)N3CCN(C(=O)c4ccco4)CC3)cnn2-c2ccc(F)cc2)CC1 | 8.32% |
| CCC(C)(C)c1ccc(OCC(=O)Nc2ccncc2)cc1 | 10.5% |
| Cc1ccc(S(=O)(=O)N2CCCOC2CNC(=O)C(=O)NCCCn2ccnc2)cc1 (centres unmarked) | 3.8% |
| Cc1ccc(NC(=O)c2ccc(Cl)c(N3C(=O)C=CC3=O)c2)cc1 | -2.61% |
| CC(=O)Nc1cc(O)cc(O)c1 | 4.15% |
| Nc1c(Br)cc([N+](=O)[O-])cc1[N+](=O)[O-] | 10.8% |
| COc1ccc(C(=O)NCc2ccc3c(c2)cc(C)n3C)cc1OC | 6.09% |
| COc1ccc(C(CC(=O)c2ccccc2)S(=O)(=O)c2ccccc2)cc1 (centres unmarked) | 10.8% |
| CCn1c(SCC(=O)Nc2ccc(NC(C)=O)cc2)nc2c1c(=O)n(C)c(=O)n2C | 13.2% |
| CC1=NN(c2ccccc2)C(=O)C1C(=O)c1ccc([N+](=O)[O-])cc1 (centres unmarked) | 6.37% |
| CCOc1ccc(N(CC(=O)Nc2ccc(OC)cc2)S(=O)(=O)c2c(C)[nH]c(=O)[nH]c2=O)cc1 | 6.52% |
| O=C(NN1C(=O)NC2(CCCCC2)C1=O)c1cc(F)cc(F)c1 | 7.19% |
| COc1cc(CNC(C)(C)CO)ccc1OCC(=O)Nc1ccc(Br)cc1 | 1.2% |
| CC(C(=O)NCCS(=O)(=O)c1ccc(Cl)cc1)S(=O)(=O)c1ccc(Cl)cc1 (centres unmarked) | 1.23% |
| Cn1c(Sc2ccc(Br)cc2)c(C=O)c2ccccc21 | 9.83% |

| Compound | hERG current change (%, negative = inhibition) at 1uM |
| --- | --- |
| CCOc1cc(C)c(C(C)C)cc1S(=O)(=O)N1CCN(C)CC1 | -6.68% |
| Cc1ccc(-c2cn3cccnc3n2)cc1NC(=O)c1c(-c2ccccc2Cl)noc1C | 12.7% |
| CCN(CC)C(=O)Cn1cnc2sc(C(=O)N3CCN(Cc4ccc5c(c4)OCO5)CC3)c(C)c2c1=O | 15.1% |
| CNC(=O)c1sc(N2N=C3/C(=C/c4ccccc4)CCCC3C2c2ccccc2)nc1C (centres unmarked) | 13.6% |
| CC(C)OC(=O)CC12CN(C)CC(CC(=O)OC(C)C)(CN(C)C1)C2=O | 6.62% |
| CCN1C(=O)[C@H]2[C@@H](c3ccc(-c4ccccc4)cc3)N[C@@](CC(C)C)(C(=O)OC)[C@H]2C1=O.O=C(O)C(F)(F)F | 14.5% |
| C/C=C(\C)C(=O)N[C@@H](c1ccccc1)[C@@H](O)C(=O)O[C@H]1C[C@@]2(O)[C@@H](OC(=O)c3ccccc3)C3[C@](C)(C(=O)[C@H](OC(C)=O)C(=C1C)C2(C)C)[C@H](O)C[C@H]1OC[C@@]31OC(C)=O (some centres unmarked) | 16.7% |
| COc1ccc(OC)c(CN2CCN(C(=O)c3cccc4ccccc34)CC2)c1.O=C(O)C(=O)O | 3.4% |
| Cc1cc(C)n(/C(=C\N(C)C)C(=O)c2ccc(Cl)cc2)n1 | 13.7% |
| CC1(C)Cc2nc(NCCCO)c(C#N)cc2CO1 | 8.45% |
| O=C(O)c1cc(-c2ccccc2Cl)n(-c2cccc(Cl)c2)n1 | 10.3% |
| CN(CC(=O)Nc1n[nH]c(=S)s1)S(=O)(=O)c1cccc2cccnc12 | 13.6% |
| CCCCC(=O)NC(c1cccs1)c1cc(Cl)c2cccnc2c1O (centres unmarked) | 12.3% |
| O=C1CC(c2ccccc2Cl)C2=C(COC2=O)N1 (centres unmarked) | -6.13% |
| CCOC(=O)N1CCN(C(=O)c2ccc(S(=O)(=O)NCc3ccco3)cc2)CC1 | 6.95% |
| O=C(NC(Cc1ccccc1)C(=O)O)/C(=C\c1ccccc1)NC(=O)c1ccc(Br)o1 (centres unmarked) | 9.56% |
| CC1CCCCC1NC(=O)COC(=O)c1ccccn1 (centres unmarked) | 3.97% |
| CN(C(=O)c1ccccc1-c1ccccc1C(=O)O)c1ccccc1 | 4.8% |
| Cc1cccc(C)c1N(CC(=O)N1CCCC1)S(C)(=O)=O | 16.2% |
| COc1ccc(C(=O)NNC(=S)NC(=O)c2ccccc2[N+](=O)[O-])cc1 | 13.9% |
| Clc1ccc(-c2csc(N3CCSCC3)n2)cc1 | -7.65% |

| Compound | hERG current change (%, negative = inhibition) at 1uM |
| --- | --- |
| COc1ccc(-c2ccc(C#N)c(SCC(=O)NCCc3ccccc3)n2)cc1OC | 8.03% |
| CCCn1cc(SCC(=O)Nc2ccc3c(c2)OCO3)c2ccccc21 | 6.47% |
| Cc1nn(C)cc1C(C(=O)NC1CCCCC1)N(CCc1ccccc1)C(=O)c1cnccn1 (centres unmarked) | -13.4% |
| CCOc1ccc(NC(=O)N[C@@H](CCSC)C(=O)OC)cc1 | 8.43% |
| CCSc1ccc([C@@H]2[C@@H]3C(=O)N(CC)C(=O)[C@@H]3[C@]3(C(=O)OC)CCCCN23)cc1OC.O=C(O)C(F)(F)F | 10.8% |
| O=C(Nc1nnc(SCc2ccc(F)cc2)s1)C1CC(=O)N(c2ccc3c(c2)OCCO3)C1 (centres unmarked) | 8.22% |
| COc1ccccc1N1CCN(C2CCN(C(=O)COc3cccc(C)c3)CC2)CC1.O=C(O)C(=O)O | -26.6% |
| COc1cc(/C=C2/SC(=S)N(CCC(=O)Nc3ccccc3)C2=O)cc(OC)c1OC | 15.2% |
| O=C(OC(C(=O)NCc1ccccc1)c1ccccc1F)c1ccco1 (centres unmarked) | 7.23% |
| Cc1[nH]nc(SCC(=O)NC2CCCCC2)c1[N+](=O)[O-] | 4.56% |
| COc1ccc(C(C)=O)cc1Cn1cnc2c(cnn2C)c1=O | 11.5% |
| COc1ccc(C(C)=O)cc1COC(=O)CNC(=O)c1ccc(Cl)cc1 | 12.2% |
| COc1ccc(NC(=O)NC2(C(=O)N3CCCCCC3)CCCCC2)cc1 | -0.553% |
| COc1ccc(C)cc1-n1nnnc1SCC(=O)Nc1cccnc1Cl | 2.22% |
| CCN(CC)S(=O)(=O)c1ccc(C(=O)NCc2nnc(SCC(=O)OC)n2C)cc1 | 0.243% |
| O=C(CCNS(=O)(=O)c1ccc(Br)s1)N1CCCCC1 | 13.9% |
| Cc1ccc2c(c1)C(c1ccc(F)cc1)N(C(=O)c1cc3ccccc3oc1=O)CC(=O)N2 (centres unmarked) | -21% |
| COc1ccccc1-c1nc(SC)n[nH]1 | -5.95% |
| Cn1c2ccccc2c2c(C(=O)NCc3ccco3)cn(C3CCCCC3)c(=O)c21 | 7.44% |
| CCc1ccnc(NS(=O)(=O)c2ccc3c(c2)CCO3)c1 | 16.3% |
